Measurements from the supplement of paper PMC8728848.
Some of the results follow.

Legend:
Assay in all cases: glycan array binding signal (z-score within array); higher = stronger binding
Conditions in all cases: glycan notation: IUPAC condensed, linker removed
[1] = molecular target: Fuc(a1-3)GlcNAc
Method in brief: (§1)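 Arrays were curated from the Consortium for Functional Glycomics database, 3228 in total, and kept only where the protein sequence was available. Binding is expressed as a within-array Z-score. This score was averaged across arrays of the same protein sequence at different concentrations or buffers and across linkers, and negative values can be read as non-binding.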

[2] = molecular target: Fuc(a1-3)[Gal(b1-4)]Glc6S
Method in brief: as §1

[3] = molecular target: Fuc(a1-3)[Gal(b1-4)]GlcNAc
Method in brief: as §1

[4] = molecular target: Fuc(a1-3)[Gal(b1-4)]GlcNAc(b1-2)Man
Method in brief: as §1

[5] = molecular target: Fuc(a1-3)[Gal(b1-4)]GlcNAc(b1-2)Man(a1-3)[Fuc(a1-3)[Gal(b1-4)]GlcNAc(b1-2)Man(a1-6)]Man(b1-4)GlcNAc(b1-4)GlcNAc
Method in brief: as §1

[6] = molecular target: Fuc(a1-3)[Gal(b1-4)]GlcNAc(b1-2)Man(a1-3)[Fuc(a1-3)[Gal(b1-4)]GlcNAc(b1-2)Man(a1-6)]Man(b1-4)GlcNAc(b1-4)[Fuc(a1-6)]GlcNAc
Method in brief: as §1

[7] = molecular target: Fuc(a1-3)[Gal(b1-4)]GlcNAc(b1-3)Gal(b1-3)[Fuc(a1-4)]GlcNAc
Method in brief: as §1

[8] = molecular target: Fuc(a1-3)[Gal(b1-4)]GlcNAc(b1-3)Gal(b1-4)[Fuc(a1-3)]GlcNAc
Method in brief: as §1

[9] = molecular target: Fuc(a1-3)[Gal(b1-4)]GlcNAc(b1-3)Gal(b1-4)[Fuc(a1-3)]GlcNAc(b1-3)Gal(b1-4)[Fuc(a1-3)]GlcNAc
Method in brief: as §1

[10] = molecular target: Fuc(a1-3)[Gal(b1-4)]GlcNAc(b1-3)GalNAc
Method in brief: as §1

[11] = molecular target: Fuc(a1-3)[Gal(b1-4)]GlcNAc(b1-6)GalNAc
Method in brief: as §1

[12] = molecular target: Fuc(a1-3)[Gal(b1-4)]GlcNAc(b1-6)[Gal(b1-3)GlcNAc(b1-3)]Gal(b1-4)Glc
Method in brief: as §1

[13] = molecular target: Fuc(a1-3)[Gal(b1-4)]GlcNAc6S
Method in brief: as §1

[14] = molecular target: Fuc(a1-3)[Gal3S(b1-4)]Glc
Method in brief: as §1

[15] = molecular target: Fuc(a1-3)[Gal3S(b1-4)]GlcNAc
Method in brief: as §1

[16] = molecular target: Fuc(a1-3)[Gal3S(b1-4)]GlcNAc6S
Method in brief: as §1

[17] = molecular target: Fuc(a1-3)[GalNAc(b1-4)]GlcNAc
Method in brief: as §1

[18] = molecular target: Fuc(a1-3)[GalNAc(b1-4)]GlcNAc6S
Method in brief: as §1

[19] = molecular target: Fuc(a1-4)GlcNAc
Method in brief: as §1

[20] = molecular target: Fuc(b1-3)GlcNAc
Method in brief: as §1

[21] = molecular target: Gal(a1-2)Gal
Method in brief: as §1

[22] = molecular target: Gal(a1-3)Gal
Method in brief: as §1

[23] = molecular target: Gal(a1-3)Gal(b1-3)GlcNAc
Method in brief: as §1

[24] = molecular target: Gal(a1-3)Gal(b1-3)GlcNAc(b1-2)Man
Method in brief: as §1

[25] = molecular target: Gal(a1-3)Gal(b1-3)GlcNAc(b1-2)Man(a1-3)[Gal(a1-3)Gal(b1-3)GlcNAc(b1-2)Man(a1-6)]Man(b1-4)GlcNAc(b1-4)GlcNAc
Method in brief: as §1

[26] = molecular target: Gal(a1-3)Gal(b1-3)GlcNAc(b1-3)GalNAc
Method in brief: as §1

[27] = molecular target: Gal(a1-3)Gal(b1-3)GlcNAc(b1-6)GalNAc
Method in brief: as §1

[28] = molecular target: Gal(a1-3)Gal(b1-3)[Fuc(a1-4)]GlcNAc(b1-2)Man(a1-3)[Gal(a1-3)Gal(b1-3)[Fuc(a1-4)]GlcNAc(b1-2)Man(a1-6)]Man(b1-4)GlcNAc(b1-4)GlcNAc
Method in brief: as §1

[29] = molecular target: Gal(a1-3)Gal(b1-4)Glc
Method in brief: as §1

[30] = molecular target: Gal(a1-3)Gal(b1-4)GlcNAc
Method in brief: as §1

[31] = molecular target: Gal(a1-3)Gal(b1-4)GlcNAc(b1-2)Man
Method in brief: as §1

[32] = molecular target: Gal(a1-3)Gal(b1-4)GlcNAc(b1-2)Man(a1-3)[Gal(a1-3)Gal(b1-4)GlcNAc(b1-2)Man(a1-6)]Man(b1-4)GlcNAc(b1-4)GlcNAc
Method in brief: as §1

[33] = molecular target: Gal(a1-3)Gal(b1-4)GlcNAc(b1-3)GalNAc
Method in brief: as §1

[34] = molecular target: Gal(a1-3)Gal(b1-4)GlcNAc(b1-6)GalNAc
Method in brief: as §1

[35] = molecular target: Gal(a1-3)Gal(b1-4)[Fuc(a1-3)]GlcNAc
Method in brief: as §1

[36] = molecular target: Gal(a1-3)Gal(b1-4)[Fuc(a1-3)]GlcNAc(b1-2)Man(a1-3)[Gal(a1-3)Gal(b1-4)[Fuc(a1-3)]GlcNAc(b1-2)Man(a1-6)]Man(b1-4)GlcNAc(b1-4)GlcNAc
Method in brief: as §1

[37] = molecular target: Gal(a1-3)GalNAc
Method in brief: as §1

[38] = molecular target: Gal(a1-3)[Gal(a1-4)]Gal(b1-4)GlcNAc
Method in brief: as §1

[39] = molecular target: Gal(a1-4)Gal(b1-3)GlcNAc(b1-2)Man(a1-3)[Gal(a1-4)Gal(b1-3)GlcNAc(b1-2)Man(a1-6)]Man(b1-4)GlcNAc(b1-4)GlcNAc
Method in brief: as §1

[40] = molecular target: Gal(a1-4)Gal(b1-4)Glc
Method in brief: as §1

[41] = molecular target: Gal(a1-4)Gal(b1-4)GlcNAc
Method in brief: as §1

[42] = molecular target: Gal(a1-4)Gal(b1-4)GlcNAc(b1-2)Man(a1-3)[Gal(a1-4)Gal(b1-4)GlcNAc(b1-2)Man(a1-6)]Man(b1-4)GlcNAc(b1-4)GlcNAc
Method in brief: as §1

[43] = molecular target: Gal(a1-4)Gal(b1-4)GlcNAc(b1-3)Gal(b1-4)Glc
Method in brief: as §1

[44] = molecular target: Gal(a1-4)GlcNAc
Method in brief: as §1

[45] = molecular target: Gal(a1-6)Glc
Method in brief: as §1

B1: PV12658A-bvu-496-32-496 (Bacteroides vulgatus) (protein)
chain: DLDGAITTPAAVELALNGIYYSLPGNGFNVIFPTVSGSFKAGTMWRQEIVSAGNAVYYSERMLPTLSFSDATEWDADYAVIKNANFLETACNRMSDGEFSGNRRAEVLGEIAYLRALAYFNILVRYCEFWDMNSEYGVVMRNEAPSVSNALKARSSVADSYQYILDQLEIAIEKAPDWKKLSQASKEAAKALKARVLLYAGKYTEAVAAVNDAIDTNSPLPEANYGDVFDKFSTTKEILFARVFDQKDATNTSTRQQCYGNSPTKKQGYWGPTNEYVELVGDDPRADAIFSKVDSLMDSRSSAVAYNLKSVKKLLNDANDMPVIFSRVSELYLIKAEALYRSGASISEAYAPIRKLRERAGAEIILPANNEELETAIFNEWMLELSFENWHEWFAMIRFAGYTEKPDFTRLLALNKTLREALEKEYEKSEAQGDNYYQRIIDRRIDAIPSSEISSNLECKQNPGY
[1]
  glycan array binding signal (z-score): -0.156
[2]
  glycan array binding signal (z-score): -0.036
[3]
  glycan array binding signal (z-score): -0.244
[4]
  glycan array binding signal (z-score): -0.379
[5]
  glycan array binding signal (z-score): -0.307
[6]
  glycan array binding signal (z-score): -0.15
[7]
  glycan array binding signal (z-score): -0.492
[8]
  glycan array binding signal (z-score): -0.25
[9]
  glycan array binding signal (z-score): -0.323
[10]
  glycan array binding signal (z-score): -0.278
[11]
  glycan array binding signal (z-score): -0.147
[12]
  glycan array binding signal (z-score): -0.544
[13]
  glycan array binding signal (z-score): 0.065
[14]
  glycan array binding signal (z-score): -0.264
[15]
  glycan array binding signal (z-score): -0.153
[16]
  glycan array binding signal (z-score): -0.244
[17]
  glycan array binding signal (z-score): 0.311
[18]
  glycan array binding signal (z-score): -0.267
[19]
  glycan array binding signal (z-score): -0.159
[20]
  glycan array binding signal (z-score): -0.21
[21]
  glycan array binding signal (z-score): -0.348
[22]
  glycan array binding signal (z-score): -0.173
[23]
  glycan array binding signal (z-score): 3.81
[24]
  glycan array binding signal (z-score): -0.441
[25]
  glycan array binding signal (z-score): -0.218
[26]
  glycan array binding signal (z-score): -0.252
[27]
  glycan array binding signal (z-score): -0.262
[28]
  glycan array binding signal (z-score): -0.342
[29]
  glycan array binding signal (z-score): -0.267
[30]
  glycan array binding signal (z-score): -0.472
[31]
  glycan array binding signal (z-score): -0.131
[32]
  glycan array binding signal (z-score): 4.55
[33]
  glycan array binding signal (z-score): 0.476
[34]
  glycan array binding signal (z-score): -0.133
[35]
  glycan array binding signal (z-score): -0.336
[36]
  glycan array binding signal (z-score): 0.883
[37]
  glycan array binding signal (z-score): -0.281
[38]
  glycan array binding signal (z-score): 1.73
[39]
  glycan array binding signal (z-score): 0.354
[40]
  glycan array binding signal (z-score): 0.596
[41]
  glycan array binding signal (z-score): 0.017
[42]
  glycan array binding signal (z-score): 7.57
[43]
  glycan array binding signal (z-score): -0.309
[44]
  glycan array binding signal (z-score): -0.462
[45]
  glycan array binding signal (z-score): -0.247
